PubChem BioAssay AID1347417 (National Center for Advancing Translational Sciences (NCATS), 2020)
The campaign covered roughly 120,000 compounds. About 5,300 (4.4%) were called active. The inconclusive results got no clear call from the source; some entries with a clear call stand among them for comparison. Calls follow the shape of the dose curve; as a rule, active = well fitted inhibition curve with a large enough effect; inconclusive = small, poorly fitted or top-dose-only effect; inactive = no such curve, though single readings can be large or run the other way. Potencies beside an inconclusive call are fits to weak or partial responses and may not hold up.

Assay: qHTS Primary assay for Inhibitors of Plasmodium falciparum Dd2 growth in vitro; also: nearly all actives have a fitted effect of over 65% in size
Conditions: P. falciparum Dd2 growth, SYBR Green, 72 h; series mostly up to 28.9 µM
Summary of the method: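 Readout: SYBR Green fluorescence, 485 nm excitation, 535 nm emission, after ~16 h lysis at 37C. Before that, Dd2-infected red cells (2.5% hematocrit) grew 72 h with compound, 29 uM top final concentration.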
Potency is read from the fitted curve at half-maximal effect; tags tell the direction and shape of the fitted curve.

**Q.** With `Cc1ccc(C(=O)N2CCC(n3cc(-c4nc(C(C)C)no4)nn3)CC2)s1` as the molecule, how does the Potency read?
**A.** inconclusive: 7.08 µM [inhibitor, partial curve, poor fit]

**Q.** Which Potency does the source give for `COc1ccc(C2(C(=O)N(C)Cc3ccc(OC(F)(F)F)cc3)CCOCC2)cc1` here?
**A.** inconclusive: 10 µM [inhibitor, single point]

**Q.** With `COCC(=O)N(C1CCOCC1)C1CCN(C(=O)Cc2ccccc2F)CC1` as the molecule, how does the Potency read?
**A.** inactive

**Q.** Which Potency does the source give for `COc1cc(F)ccc1-c1cnc2n[nH]c(-c3sccc3C)c2n1` here?
**A.** inconclusive: 1.58 µM [inhibitor, partial curve, poor fit]

**Q.** With `CSc1ccccc1CN1CCC2(CC1)C(C(=O)O)CC(=O)N2C` (configuration not stated) as the molecule, how does the Potency read?
**A.** inactive

**Q.** Which Potency does the source give for `CCN1CCc2c(sc(NC(=O)c3ccc(S(=O)(=O)N(C)C4CCCCC4)cc3)c2C(N)=O)C1` here?
**A.** inconclusive: 17.8 µM [inhibitor, single point]

**Q.** For `CSc1ccc(CNC(=O)Cn2c(-c3cccs3)cc3cc(F)ccc32)cc1`, which Potency is on record?
**A.** inconclusive: 17.8 µM [inhibitor, single point]

**Q.** Which Potency does the source give for `O=C(NCC(c1cccnc1)N1CCc2ccccc2C1)C(=O)Nc1ccccc1F` (configuration not stated) here?
**A.** inconclusive: 10 µM [inhibitor, single point]

**Q.** With `O=C(O)CCC(=O)N1C[C@@H]2C[C@H]1C(=O)N(Cc1ccc(OC(F)(F)F)cc1)c1ccccc1O2` as the molecule, how does the Potency read?
**A.** inactive

**Q.** Which Potency does the source give for `CCCC1(CO)CCCN(Cc2nnc(-c3cccnc3)o2)C1` (configuration not stated) here?
**A.** inactive

**Q.** With `CCN(C(=O)CCS(=O)(=O)c1ccc2c(c1)CCN2C(C)=O)c1cccc(C(F)(F)F)c1` as the molecule, how does the Potency read?
**A.** inconclusive: 2.82 µM [inhibitor, full curve]

**Q.** Which Potency does the source give for `CN(C)c1ccc(-c2noc([C@@H]3CCCN3CC3CCCCC3)n2)cn1` here?
**A.** inconclusive: 11.2 µM [inhibitor, partial curve, poor fit]

**Q.** With `CCCCc1ccc(Nc2cc(C)nc(-n3nc(C)cc3C)n2)cc1` as the molecule, how does the Potency read?
**A.** active: 2.82 µM

**Q.** With `c1ccc2c(c1)COC1(CCNC1)CN2CC1CCCC1` (configuration not stated) as the molecule, how does the Potency read?
**A.** inconclusive: 12.6 µM [inhibitor, partial curve]

**Q.** With `CCCC(=O)N1CCc2cc(OC)c(OC)cc2C1COc1ccc2c(C)cc(=O)oc2c1` (configuration not stated) as the molecule, how does the Potency read?
**A.** active: 7.08 µM

**Q.** Which Potency does the source give for `CN(C)C(C(=O)N1CCC(F)(F)CC1)c1ccccc1F` (configuration not stated) here?
**A.** inconclusive: 1.78 µM [inhibitor, full curve, poor fit]

**Q.** Which Potency does the source give for `COc1ccc(CNc2nc(-c3ccc(OC)cc3)cc(C(F)(F)F)n2)cc1` here?
**A.** inconclusive: 17.8 µM [inhibitor, single point]

**Q.** Which Potency does the source give for `NC(=O)COC[C@@H]1CN(CC2CCCCC2)C[C@H]1c1ccncc1` here?
**A.** inconclusive: 7.94 µM [inhibitor, single point]

**Q.** Which Potency does the source give for `CCCSc1ncc(Cl)c(C(=O)Nc2ccc(S(=O)(=O)N3CCC(C)CC3)cc2)n1` here?
**A.** inconclusive: 17.8 µM [inhibitor, single point]

**Q.** Which Potency does the source give for `Cc1ccc(Cl)cc1N1CCN(C(=O)c2cnn(C(C)(C)C)c2C2CCN(C(=O)OC(C)(C)C)CC2)CC1` here?
**A.** active: 7.94 µM

**Q.** With `COc1ccc(NC(=O)c2cnc(Nc3ccc(C)c(Cl)c3)c3ccccc23)c(OC)c1` as the molecule, how does the Potency read?
**A.** inconclusive: 20 µM [inhibitor, single point]

**Q.** Which Potency does the source give for `O=C(c1cccc(F)c1)N1CCOC[C@H](Oc2ccc(C(F)(F)F)cc2)C1` here?
**A.** inactive

**Q.** With `CC1=C[C@@H](CNC(=O)C2CCC2)[C@H](C(C)C)C[C@H]1Cc1nc2ccc(F)cc2[nH]1` as the molecule, how does the Potency read?
**A.** active: 11.2 µM

**Q.** For `COc1ccc(-c2nn(-c3ccccc3C)cc2CN2CCCC(C)(O)C2)cc1F` (configuration not stated), which Potency is on record?
**A.** inconclusive: 11.2 µM [inhibitor, partial curve, poor fit]

**Q.** With `CCn1ccnc1C1CCN(C(=O)c2cccc(N3CCNC3=O)c2)CC1` as the molecule, how does the Potency read?
**A.** inactive

**Q.** With `CN1C[C@@H](NS(=O)(=O)c2ccc(C#N)cc2)C[C@H]1c1nc(-c2cccnc2)no1` as the molecule, how does the Potency read?
**A.** inconclusive: 31.6 µM [inhibitor, single point]

**Q.** Which Potency does the source give for `COc1ccc(O)cc1CN1CCC2(CCNCC2)C1` here?
**A.** inactive

**Q.** For `CC[C@H](C)[C@@H](N)C(=O)N1CCC2(CC1)Nc1ccccc1NC2=O`, which Potency is on record?
**A.** inactive

**Q.** With `CCc1nc2ccc(C(=O)NCc3ccc(N(C)C)cc3)cc2nc1CC` as the molecule, how does the Potency read?
**A.** active: 3.55 µM

**Q.** With `CC(=O)N1CCC(C2CCN(S(=O)(=O)c3ccccc3Cl)C2)CC1` (configuration not stated) as the molecule, how does the Potency read?
**A.** inactive

**Q.** With `Cc1nc2c(c(-c3ccc(Cl)cc3)n1)CCN(C(=O)Nc1ccc(Cl)cc1)CC2` as the molecule, how does the Potency read?
**A.** inconclusive: 0.447 µM [inhibitor, partial curve, poor fit]

**Q.** Which Potency does the source give for `CN1CCC([C@@H]2CN(S(=O)(=O)c3ccc(Cl)s3)C[C@H]2C(N)=O)CC1` here?
**A.** inactive

**Q.** For `Cn1nnnc1SCCCNCc1cccc(OCc2ccccc2F)c1`, which Potency is on record?
**A.** inconclusive: 17.8 µM [inhibitor, single point]

**Q.** With `Cc1ccc(OCc2nc(C3CCCCN3C(=O)NCc3ccc(F)cc3)no2)cc1` (configuration not stated) as the molecule, how does the Potency read?
**A.** inconclusive: 11.2 µM [inhibitor, single point]

**Q.** For `C[S+](=O)([O-])c1ccc(-c2cc(C(=O)NCCc3ccc(Cl)cc3)nn3cccc23)cc1`, which Potency is on record?
**A.** inconclusive: 10 µM [inhibitor, single point]

**Q.** With `CCC(Sc1ncc(S(=O)(=O)c2ccc(C)cc2)c(=O)[nH]1)C(=O)Nc1cc(C)ccc1C` (configuration not stated) as the molecule, how does the Potency read?
**A.** inconclusive: 4.47 µM [inhibitor, partial curve, poor fit]

**Q.** For `CN(CCc1ccccn1)C(=O)C1CCCN(c2cnn(Cc3ccccc3)c(=O)c2)C1` (configuration not stated), which Potency is on record?
**A.** inconclusive: 20 µM [inhibitor, single point]

**Q.** Which Potency does the source give for `CN(C)CCNC(=O)c1ccnc(-c2nnc3ccc(N(C)c4ccccc4)nn23)c1` here?
**A.** inconclusive: 15.8 µM [inhibitor, single point]

**Q.** Which Potency does the source give for `Cc1ccc(C2=CC(c3ccccc3C)n3c(nc4ccccc43)N2)cc1` (configuration not stated) here?
**A.** inconclusive: 10 µM [inhibitor, partial curve]

**Q.** For `CCn1ccc2sc(C)c(C(=O)N3CCC(Cc4ccccc4)CC3)c2c1=O`, which Potency is on record?
**A.** inconclusive: 0.355 µM [inhibitor, full curve, poor fit]

**Q.** For `O=c1[nH]ccn1C1CCN(Cc2ccc(F)cc2)CC1`, which Potency is on record?
**A.** inactive

**Q.** Which Potency does the source give for `CCN1c2cc(C(=O)Nc3ccc(Cl)cc3C)ccc2C(=O)N2CCCCCC21` (configuration not stated) here?
**A.** inconclusive: 3.98 µM [inhibitor, partial curve, poor fit]
